Laboratory results from publication PMC7819943, “Rice protein-binding microarrays: a tool to detect cis-acting elements near promoter regions in rice”.
The other results are listed elsewhere or left out.

These sequences were tested against T1, OsWOX13 (Oryza sativa, UniProt Q5QMM3 1-267) (assay: protein-binding microarray (RPBM); PBS, 2% BSA, 51.3 ng/ul salmon testes DNA, 50 uM zinc acetate, 200 nM TF, 25 C, 1 h; high values mean tight binding). Settings: protein: recombinant; tags: N-terminal polyhistidine and DsRed monomer fusion (pET32a); label: CyDye5-dUTP incorporated in the synthesized complementary strand; 3' TTTTT single-stranded linker to array surface; dsDNA, one strand shown.
T1 sequence: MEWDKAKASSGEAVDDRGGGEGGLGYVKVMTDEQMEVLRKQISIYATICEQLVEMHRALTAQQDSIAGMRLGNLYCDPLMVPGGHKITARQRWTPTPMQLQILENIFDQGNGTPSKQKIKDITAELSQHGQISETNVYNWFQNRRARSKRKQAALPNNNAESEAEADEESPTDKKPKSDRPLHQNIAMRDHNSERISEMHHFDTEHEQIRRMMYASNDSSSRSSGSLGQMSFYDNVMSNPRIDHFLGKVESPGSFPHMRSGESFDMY
Method in brief: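 In PBS with 2% BSA, salmon testes DNA and 50 µM zinc acetate, 200 nM protein was incubated on a custom Agilent array at 25 °C for 1 h and then washed off. The array had been made double-stranded by primer extension with Cy5-dUTP and blocked with 2% BSA. The proteins were transcription factors fused N-terminally to polyhistidine and DsRed, expressed in E. coli BL21-CodonPlus and purified on Ni–NTA. The binding signal is per-feature fluorescence intensity (arbitrary units) from an Axon 4000B scanner.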
“GTGATACGAAATAGATTGGACCAATATTATTCCTAATACACGGAGTCACCTAGTGCAG” was tested, and the binding signal was 19700 fluorescence intensity (a.u.). With “TTTTGACTGTGAATATCTACTACTTACATAACAAAGGAGGCGGAGTCACCTAGTGCAG” the binding signal was 6920 fluorescence intensity (a.u.). For “TAGTCTTGATCAATCTCAATCAATCACCATTTACCAAGTACGGAGTCACCTAGTGCAG”, the binding signal was 34400 fluorescence intensity (a.u.). With “GACGGCAGATTGGCAAGTATAATTGGGCGATGCACATAAGCGGAGTCACCTAGTGCAG” the binding signal was 25800 fluorescence intensity (a.u.). In the case of “AGGAATATATATAATTTACAAATAACTAAAATTTGGTATTCGGAGTCACCTAGTGCAG”, the binding signal is reported as 3360 fluorescence intensity (a.u.). With “CATTCAGTAAAGCCAAATTAATTGAAACATGATCCGAGTCCGGAGTCACCTAGTGCAG” the binding signal was 3950 fluorescence intensity (a.u.). “CCGTGATTTGAATGGAGGGTAGATCTCGAGAGGGAGGGAACGGAGTCACCTAGTGCAG” was tested, and the binding signal was 38600 fluorescence intensity (a.u.). In the case of “TACCTATGTTAATGTACAATTAGAGCTTCTAGACTATATCCGGAGTCACCTAGTGCAG”, the binding signal is reported as 4520 fluorescence intensity (a.u.). For “ACAAATTAGTTAAACTTGCACCTTTCTTGTTGCTACCTCACGGAGTCACCTAGTGCAG”, the binding signal was 15300 fluorescence intensity (a.u.). “AGGATTGAAGCTTTCCAAATCCTATGAAATTCTTATGGAACGGAGTCACCTAGTGCAG” was tested, and the binding signal was 3930 fluorescence intensity (a.u.). For “GAGAAACTAAATTTGCACAATTTTCATTATCAACAGTTACCGGAGTCACCTAGTGCAG”, the binding signal was 8640 fluorescence intensity (a.u.). For “TCTAATGATGATTGTAAGCCGTACAATTTACTAAAAGATACGGAGTCACCTAGTGCAG”, the binding signal was 15000 fluorescence intensity (a.u.). With “ATAAGTTAATTTAGTATGGGATGCGACATCTGTTAGTACTCGGAGTCACCTAGTGCAG” the binding signal was 5560 fluorescence intensity (a.u.). “ATATGATGGAAATCATGTGGTACCATCTACATAAATAAAACGGAGTCACCTAGTGCAG” was tested, and the binding signal was 12400 fluorescence intensity (a.u.). With “CACTATTATGTATGCAGTTTAATTTAATGATCATAATAGTCGGAGTCACCTAGTGCAG” the binding signal was 3770 fluorescence intensity (a.u.). In the case of “TATTAAATTACATGTCCTTGCAGAAGAAGTTGACATTGGCCGGAGTCACCTAGTGCAG”, the binding signal is reported as 11700 fluorescence intensity (a.u.). In the case of “TTTGGATTGATCATGGTCATTTGTACTTTTGTAGTCTTTACGGAGTCACCTAGTGCAG”, the binding signal is reported as 21500 fluorescence intensity (a.u.). For “ATGGCTCTATCATTGACGGTGACGACTGCATATGTTAAGGCGGAGTCACCTAGTGCAG”, the binding signal was 8100 fluorescence intensity (a.u.). With “CACTAAATTACCTGTTTCTGCATTGCTAATCGGAGTGATCCGGAGTCACCTAGTGCAG” the binding signal was 3520 fluorescence intensity (a.u.). For “ATCGTGACAGAATATTCCCTTCCGACACCACCTCCGCTTCCGGAGTCACCTAGTGCAG”, the binding signal was 11600 fluorescence intensity (a.u.). With “TTGTAAATTTGTAATACGGCCTTACAAACAATAGGTTAGTCGGAGTCACCTAGTGCAG” the binding signal was 10200 fluorescence intensity (a.u.). With “TATGACTAGTTATTTAAAGATTGGTCCTGAACAAAGTGTACGGAGTCACCTAGTGCAG” the binding signal was 8190 fluorescence intensity (a.u.). “CAGCACATCAACTTTGATTGGGATTGCCTCTAACACCACACGGAGTCACCTAGTGCAG” was tested, and the binding signal was 22300 fluorescence intensity (a.u.). For “AGAATAATTAGGAGCTAAATGGTGTATGTGCCGCATGCATCGGAGTCACCTAGTGCAG”, the binding signal was 17400 fluorescence intensity (a.u.). “TTTTGATCAATTTCAGAGTTCTACCATATATGCACTTGCCCGGAGTCACCTAGTGCAG” was tested, and the binding signal was 3260 fluorescence intensity (a.u.). “CCAAACTACCAAAATTGTTAGACTTTTACTGCACACACCTCGGAGTCACCTAGTGCAG” was tested, and the binding signal was 3890 fluorescence intensity (a.u.). For “GGAGAATTGACACAAATGCATAAGGGGCTACCAAGTACAGCGGAGTCACCTAGTGCAG”, the binding signal was 26700 fluorescence intensity (a.u.). “ATAAATTGTTTTAAAATATCACATAAATTCATTTTCTAAGCGGAGTCACCTAGTGCAG” was tested, and the binding signal was 8290 fluorescence intensity (a.u.). With “CCGTATCATAATCACGTCCTGCCACCCTTTTAACTAATCACGGAGTCACCTAGTGCAG” the binding signal was 5040 fluorescence intensity (a.u.). With “AAGCCAATCATCCCTTGAAATAGCGCCATCTTGTTGGCAACGGAGTCACCTAGTGCAG” the binding signal was 13500 fluorescence intensity (a.u.). “GTTGATGAGAGTGAAATTTGATTGACAAAGGATTGACTGGCGGAGTCACCTAGTGCAG” was tested, and the binding signal was 64400 fluorescence intensity (a.u.). For “ATTATTGAATAGTTTTATGAAACTATTTGGTCACAGTGGGCGGAGTCACCTAGTGCAG”, the binding signal was 3880 fluorescence intensity (a.u.). With “CCAATCAATCTCCTGCACATGCACTCAAGAATTCCCTATGCGGAGTCACCTAGTGCAG” the binding signal was 10700 fluorescence intensity (a.u.). In the case of “CGTAATTAGGTTTAAAAGATTCGTATTGCAATTTACACGTCGGAGTCACCTAGTGCAG”, the binding signal is reported as 35100 fluorescence intensity (a.u.). “ACTAGTGATTAAATTCTTGTGCATGGTGATTGATTGGTGACGGAGTCACCTAGTGCAG” was tested, and the binding signal was 34600 fluorescence intensity (a.u.). “ATCCCAAATTTCCCCATCAATCGCCACCCGCGCCCAATTCCGGAGTCACCTAGTGCAG” was tested, and the binding signal was 8290 fluorescence intensity (a.u.). For “CCTCAGCAATTTGATTATCATATTACTTGGTCGTCTTCTACGGAGTCACCTAGTGCAG”, the binding signal was 9150 fluorescence intensity (a.u.). In the case of “CTGATGATGTAGTGACTGAGAAGCAGGAGTGGAGTTGTGTCGGAGTCACCTAGTGCAG”, the binding signal is reported as 6000 fluorescence intensity (a.u.). In the case of “AGCCATTAGCGCATGATTAATTGAGTATTAACTATTTTAACGGAGTCACCTAGTGCAG”, the binding signal is reported as 5100 fluorescence intensity (a.u.). With “GAAATTATGAATCAAATTCGCACACTAGCTAAGGGAGACACGGAGTCACCTAGTGCAG” the binding signal was 3470 fluorescence intensity (a.u.). For “TATCCAAATTATATTATTGTCAATTTAACTGAAATTTATCCGGAGTCACCTAGTGCAG”, the binding signal was 19600 fluorescence intensity (a.u.). “CATGATGCAAATTAATTAGTACTTGTCAACTCCATTGGATCGGAGTCACCTAGTGCAG” was tested, and the binding signal was 48600 fluorescence intensity (a.u.).
